What was measured:
NCI-N87 cells = test: Apoptosis assay (Caspase-Glo 3/7); type: cell-based, human; details: 24 h treatment
Description: The apoptosis was assessed by measuring the activity of caspases 3/7 in gastric cancer NCI-N87 cells using the Caspase-Glo®3/7 Assay system. A xenograft human gastric cancer NCI-N87 model and a human gastric cancer PDX model were treated with the antibodies at given doses. All data are presented as mean±SEM. The p values were calculated using Student's t test. ** denotes p<0.01, and * denotes p<0.05.
The apoptosis was assessed by measuring the activity of caspases 3/7 in NCI-N87 cells using the Caspase-Glo®3/7 Assay (G8093, Promega) system. The cells were seeded in a 96-well plate (CLS3799, Corning) at about 1.5×10^4 cells/well and incubated overnight. The original medium was replaced with a drug-containing culture medium of 100 μL, and the cells were treated for 24 h. After an incubation at room temperature for 30 min, 100 μL of Caspase-Glo 3/7 reagent was added. The plate was incubated in the dark for 30 min and detected using Spark (Tecan, Switzerland) after gentle shaking.

[1] = Phase I clinical trial of the second anti-HER2 antibody, safety; type: in vivo, human; details: 11 subjects, at least one dose
Text: In the phase I clinical trial of the second anti-HER2 antibody, as of Apr. 22, 2022, a total of 11 subjects were enrolled and given at least one dose of the anti-HER2 antibody. The 11 subjects were included in the safety analysis set.

[2] = system: gastric cancer cells NCI-N87; test: HER2 internalization (endocytosis) assay, pHrodo Green staining, flow cytometry; type: cell-based, human; details: 10 μg/mL
Description: (§1) A HER2 internalization assay was performed using pHrodoiFL Green STP ester amine reactive dye (P35369, Invitrogen). […] After a short wash with a wash buffer to remove unbound antibodies, one group of cells was placed on ice for freezing to stop internalization, and the remaining cells were placed in a 37° C. incubator for further incubation. After the co-incubation with the antibody, the cells were fixed with a fixation buffer (420801, Biolegend) for 30 min. Finally, all stained cells were washed with a staining buffer and analyzed on the CytoFLEX LX flow cytometer (Beckman Coulter, USA).

[3] = system: gastric cancer cells SNU216; test: as above; type: cell-based, human; details: 10 μg/mL
Description: as §1

B1: second anti-HER2 antibody: humanized IgG1 monoclonal antibody binding HER2 domain IV at an epitope different from trastuzumab; heavy chain SEQ ID NO: 5, light chain SEQ ID NO: 10 (antibody)
heavy: EVQLVESGGGLVQPGGSLRLSCAASGFTFSSYTMSWVRQAPGKGLEWVAYISAGGGSTYYPDTVKGRFTISRDNAKNSLYLQMNSLRAEDTAVYYCARHLGGTASFDYWGQGTLVTVSS[human IgG1 constant region skipped]
light: DIQMTQSPSSLSASVGDRVTITCLASQTIGTWLAWYQQKPGKAPKLLIYVATSLADGVPSRFSGSGSGTDFTLTISSLQPEDFATYYCQQNAYAPWTFGQGTKVEIKRTVAAPSVFIFPPSDEQLKSGTASVVCLLNNFYPREAKVQWKVDNALQSGNSQESVTEQDSKDSTYSLSSTLTLSKADYEKHKVYACEVTHQGLSSPVTKSFNRGEC
In the case of B1, the “apoptosis (caspases 3/7 activity)” value (NCI-N87 cells) is reported as “did not significantly induce the apoptosis of NCI-N87 cells”, the dose-related toxic reactions [1] is reported as “No dose-related toxic reactions were observed” and the tolerability [1] is reported as “well tolerated in all treatment groups”. For the same molecule, the “treatment-emergent adverse events leading to interruption, dose reduction, or infusion rate reduction” value [1] was “no treatment-emergent adverse events leading to interruption, dose reduction, or infusion rate reduction occurred”, the “treatment-emergent adverse events observed” value [1] was “decreased lymphocyte count, decreased leukocyte count, and hypokalemia” and the “HER2 internalization (endocytosis)” value [2] was “weak endocytosis”. The “HER2 internalization (endocytosis)” value [3] was “weak endocytosis”.
